Measurements reported in the supplement of paper PMC4166925.
± gives the standard deviation of the averaged measurements. Whole data set: some 33,000 sequences, median “E-score (dimensionless, -0.5 to 0.5)” near -0.049, cut for the highest 2% near 0.37. This is one part of the list.

Tested on: T1, PmTbr T-box DNA-binding domain (GST fusion)
T1 sequence: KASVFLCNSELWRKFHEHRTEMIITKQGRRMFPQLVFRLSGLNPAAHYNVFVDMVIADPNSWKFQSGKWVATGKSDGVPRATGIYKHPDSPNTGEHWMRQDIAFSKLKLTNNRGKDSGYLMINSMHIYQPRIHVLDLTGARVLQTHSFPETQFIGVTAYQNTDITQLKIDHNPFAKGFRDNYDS
Assay: PBM E-score of 8-mer (E-score (dimensionless, -0.5 to 0.5)); Tbr is Tbrain of the sea star Patiria miniata (Pm) or the sea urchin Strongylocentrotus purpuratus (Sp); higher = stronger binding preference; most listed sequences are background and not binding sites
Conditions: the construct has about 5 more residues each side
How it was run: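 Primer extension turned Universal Agilent oligonucleotide arrays double-stranded. They were incubated with 200 nM protein in PBS (pH 7.5); the protein was a GST-fused Tbr T-box DNA-binding domain expressed in BL21 E. coli at 20 °C and purified on glutathione. Every ungapped 8-mer was scored from the scanned, quantified probe intensities, and the Universal PBM Analysis Suite gave each an enrichment E-score averaged over duplicate arrays.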

Sequence	PBM E-score of 8-mer
ATCTGAGA	-0.13 ± 0.0037
ATTGACTC	-0.101 ± 0.052
ATGTTCGA	-0.159 ± 0.072
GTCAGGGA	-0.2613 ± 0.00032
AGCATAAC	0.00613 ± 0.055
GCTCGGTA	-0.177 ± 0.016
TACGGATA	-0.0533 ± 0.1
CTTTAGAC	-0.077 ± 0.03
GTCTATTA	-0.191 ± 0.067
CGTGGTTC	-0.164 ± 0.091
CACCCGTG	0.227 ± 0.018
AATTCCCC	-0.241 ± 0.038
TCCTGTCA	0.209 ± 0.015
CTAGGAAG	-0.281 ± 0.1
ACTGCCCC	-0.142 ± 0.0078
AAGTTCGC	0.227 ± 0.0055
AAGTACAT	-0.253 ± 0.087
GGAATGAA	-0.332 ± 0.032
TCAGTAGA	-0.00112 ± 0.0062
AGGCCTAG	-0.122 ± 0.02
AGTTCAAA	-0.254 ± 0.064
AACCCTAT	-0.209 ± 0.015
CAGAATAA	0.0126 ± 0.051
ATAAATAG	-0.107 ± 0.059
CTGCAGAC	-0.148 ± 0.043

Sequence	PBM E-score of 8-mer
GCATTATA	-0.136 ± 0.043
GCTCAATA	-0.0299 ± 0.077
CCAGATAC	-0.0705 ± 0.082
GGTGCGAC	0.462 ± 0.017
CAATCTAC	-0.0883 ± 0.0018
CTGAGTAC	-0.0358 ± 0.071
GCTCGGCA	-0.057 ± 0.025
CGTCTAAA	-0.169 ± 0.012
CCGGCATA	-0.27 ± 0.0033
AACAATGC	-0.0597 ± 0.035
TCTCCACA	0.0702 ± 0.028
CACTGCGG	-0.0164 ± 0.029
CAGAGGCC	-0.0516 ± 0.092
GTATGGAC	-0.261 ± 0.022
GCGCACGA	0.205 ± 0.034
GGATATCA	0.0244 ± 0.043
AAGACCCT	-0.25 ± 0.032
AAGGACCC	-0.16 ± 0.038
ACGAGATA	-0.0492 ± 0.019
GAAAATCC	-0.0645 ± 0.025
AACTCCCC	0.012 ± 0.024
TCTACTCA	-0.148 ± 0.095
CCTATTCA	-0.00562 ± 0.0076
CCGTAATC	-0.292 ± 0.035
CACTTGGC	0.236 ± 0.038

Sequence	PBM E-score of 8-mer
CCGTCGTA	-0.0585 ± 0.074
CCTTAGAG	-0.0813 ± 0.0078
CGAACTCG	0.111 ± 0.044
AGGCGATG	0.262 ± 0.066
GAGAGGAC	-0.0422 ± 0.042
CCTCAGCA	0.171 ± 0.027
ACTCGCAG	0.0856 ± 0.036
TTATAAAA	-0.178 ± 0.16
GAACTGTC	0.224 ± 0.037
AACTCCCA	-0.116 ± 0.043
ACACCTTG	0.481 ± 0.0055
AGGCCTAA	-0.152 ± 0.053
ATAATATG	0.0176 ± 0.0027
CCCCTGTC	0.0837 ± 0.059
CCGTTTTC	-0.148 ± 0.0081
ACCTTGTA	0.0536 ± 0.036
GATCCCTA	-0.0615 ± 0.069
GTCGGTGA	0.0735 ± 0.024
CACGAAAA	-0.0134 ± 0.06
CAAAACTA	-0.0488 ± 0.099
AAGCTGCC	-0.00336 ± 0.034
AATCCTCA	-0.131 ± 0.017
GGATCGAA	-0.26 ± 0.04
CAACCGTA	-0.232 ± 0.0094
AAATAGCG	0.202 ± 0.026

Sequence	PBM E-score of 8-mer
CGCTATCA	0.233 ± 0.0098
GACGCACC	0.0867 ± 0.088
ACGCTGCA	-0.0255 ± 0.039
CCGAGAAC	0.178 ± 0.035
AAGCTCAT	-0.0854 ± 0.021
CCTCACCC	0.181 ± 0.075
GCTCTCAC	0.315 ± 0.0058
AGGATCCA	-0.102 ± 0.013
AACCTCTT	-0.205 ± 0.095
AACGCTAC	-0.0105 ± 0.07
GCAAATCA	0.126 ± 0.025
ATATCGTC	0.108 ± 0.035
AAGTCCGC	0.0371 ± 0.017
CTCCGCTA	0.101 ± 0.021
CGCCTGCC	0.263 ± 0.0064
GCTACCGA	0.0575 ± 0.082
AGGTCCGG	-0.276 ± 0.07
ACAGAACG	0.00384 ± 0.043
GAAAGTTC	-0.112 ± 0.0094
GATCGAAA	-0.164 ± 0.081
GAAGATTC	-0.0862 ± 0.056
AAGAGTTC	-0.241 ± 0.015
TCCTTCGA	-0.125 ± 0.026
ATAAGGTA	0.0248 ± 0.096
CCGCCTAA	-0.178 ± 0.0036

Sequence	PBM E-score of 8-mer
GCTGCCGA	-0.0169 ± 0.12
GTACTCTA	-0.185 ± 0.011
CTTTCGCC	-0.0672 ± 0.025
GAACACTC	0.0811 ± 0.024
ACAACGCT	0.168 ± 0.0037
AGTAGGTA	-0.0493 ± 0.079
AGACAAGA	-0.16 ± 0.047
TAACACAA	0.313 ± 0.0094
CGGTAGAC	-0.145 ± 0.0061
AATTGCGA	0.285 ± 0.0031
AACGTCCT	-0.202 ± 0.044
AATATCAA	0.0637 ± 0.1
AGCTTGGA	-0.1 ± 0.021
ACAGGTCC	0.0798 ± 0.068
AGATCTTC	0.127 ± 0.021
GATAGAAC	-0.084 ± 0.039
ATTGCTGA	-0.0602 ± 0.042
ATCCGGAC	-0.106 ± 0.047
CTCGAGCC	-0.182 ± 0.013
AAGAACGC	-0.22 ± 0.033
ATTGGTTG	-0.281 ± 0.035
CTGTAATA	0.0664 ± 0.053
ATAAAAAT	-0.065 ± 0.15
CCCGGGGA	-0.0818 ± 0.0019
CCCCATTA	-0.155 ± 0.0091

Sequence	PBM E-score of 8-mer
ATTTACAC	0.318 ± 0.06
GAATGTAC	-0.0286 ± 0.0058
CCGGCCAG	-0.0265 ± 0.056
CAATGTAC	-0.0989 ± 0.028
GGATCAAC	-0.0228 ± 0.035
ATACTAGC	0.08396 ± 9.2e-05
GATGACTA	-0.194 ± 0.0088
ATTAGGAA	-0.146 ± 0.019
AACGTTAA	-0.043 ± 0.00075
AGCGGACT	-0.215 ± 0.031
GATTTCCC	-0.0739 ± 0.12
CGGCTAAC	0.0126 ± 0.015
AAGTAATG	-0.0413 ± 0.069
CGGACGGC	-0.172 ± 0.023
AGTTCGCC	0.0555 ± 0.091
ATGTGGCA	0.256 ± 0.0097
AATGCTAG	-0.0869 ± 0.0055
AAGCGATA	0.198 ± 0.033
CGGAGATC	-0.19 ± 0.032
CAACTCTA	0.0709 ± 0.032
ACCTTATG	0.131 ± 0.075
GTCAATAA	0.0466 ± 0.054
TATGATGA	-0.156 ± 0.037
CGCTACAA	0.0744 ± 0.055
AAGTTTTG	0.049 ± 0.13

Sequence	PBM E-score of 8-mer
CGAAACGA	0.2163 ± 0.0013
GCGGGCGA	0.02876 ± 0.00013
AGATCTAC	-0.114 ± 0.069
ATAGATGC	-0.0482 ± 0.036
CAGTCGGA	-0.0653 ± 0.029
CTGAGTGC	0.0699 ± 0.053
CTACTAAA	-0.158 ± 0.075
CTTGGTTA	-0.122 ± 0.063
GACCCGTA	-0.0692 ± 0.019
CCGGGCCA	-0.128 ± 0.0042
GTAAAGCA	-0.27 ± 0.06
ATAAATAC	-0.0571 ± 0.11
AAATAATC	0.0627 ± 0.091
ACGCGTTC	0.138 ± 0.014
CGACTCCG	0.0188 ± 0.066
TGGGCAAA	0.0013 ± 0.12
AAAGCGCA	-0.0352 ± 0.027
CTAAAATA	0.0202 ± 0.064
GAGCCATC	-0.0135 ± 0.0062
CCACGAAA	-2e-05 ± 0.0046
CCCTCCCG	-0.199 ± 0.019
AACTCCCG	-0.0998 ± 0.034
